Measurements taken from PubChem BioAssay AID493208 (National Center for Advancing Translational Sciences (NCATS), 2011).
Among all 44,000 compounds or so, about 340 (0.77%) were called active. Roughly 5% stayed inconclusive and do not appear here. Calls come from the whole dose curve; as a rule, active = well fitted inhibition curve with a large enough effect; inconclusive = small, poorly fitted or top-dose-only effect; inactive = flat fitted curve, though single readings scatter. This is one part of the list.

Assay: Acumen qHTS Assay for Inhibitors of the mTORC1 Signaling Pathway in MEF (Tsc2-/-, p53-/-) Cells: Sytravon;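 note: plate controls were DMSO for no effect and rapamycin for full effect; nearly all actives have a fitted effect of over 50% in size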
Conditions: phospho-rpS6 immunofluorescence/PI, 24 h; series mostly up to 38.3 µM; activity change, negative = inhibition: at the top concentration
In short: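 Cell-based qHTS: Tsc2-/- p53-/- MEF, 24 h cpd, 37 °C; fix/perm, anti-phospho-S6 Alexa-488 + PI; Acumen 488 nm scan; pS6/PI ratio, % positive cells; rapamycin 7.5 nM = inhibition ref; PI count = viability.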

Activity change, negative = inhibition, inactive:
Cc1ccc(NC(=O)CN2C(=O)C(c3ccc(F)cc3)=NC23CCCCC3)c(C)c1 -1.41%
O=C(CCCCCn1c(=O)[nH]c2ccccc2c1=O)NCc1cccc(Cl)c1 0.226%
CCOc1ccccc1CNC(=O)C1CCN(S(=O)(=O)c2cccc3nonc23)CC1 2.62%
Cn1c(=O)c2c(SCC(=O)N3CCc4ccccc43)nc(-c3cccc(F)c3)nc2n(C)c1=O -6.78%
O=C(NCc1ccc(Cl)cc1)c1ccc(CSCc2cccc(Cl)c2)o1 -7.17%
O=C(Nc1ccc(Cl)cc1F)c1oc(=O)c2ccccc2c1-c1ccccc1 -8.47%
O=C(Cc1ccccc1)N(Cc1cccnc1)c1nc2c(F)cccc2s1 -8.1%
Cc1ccccc1OC(=O)c1snnc1C -7.29%
Cc1ccnc(NS(=O)(=O)c2ccc(NC(=O)C(C)(C)Oc3ccc(Cl)cc3)cc2)n1 -1.23%
CCOc1cccc2cc(-c3cn4c(n3)sc3cc(C)ccc34)c(=O)oc12 0.439%
CCOc1ccccc1NC(=O)CSc1nc2c(c(=O)[nH]1)CCC2 -5.65%
Nc1nc(Nc2cccc(C(F)(F)F)c2)sc1C(=O)c1ccccc1 -0.8%
Cc1ccc(OCC(=O)Nc2cccc(OCc3cc(=O)n4ccccc4n3)c2)cc1C 5.03%
C=C(C)Cn1c(SCC(=O)c2ccc(OC)cc2)nc2sc3c(c2c1=O)CCCC3 2.64%
Cc1cc(Br)ccc1NC(=O)C(Cc1ccccc1)NS(=O)(=O)c1ccc(Br)s1 (stereo unspecified) 1.56%
CCOc1cc(C2Nc3ccccc3-c3nnc(SCc4ccccc4)nc3O2)ccc1OC (stereo unspecified) 0.553%
CCC(C(=O)Nc1ccc(C(=O)OC)cc1)n1nc(-c2ccc(C)cc2)c2c(c1=O)CCCC2 (stereo unspecified) -9.11%
COc1cccc(CNC(=O)c2cc3cccc4c3n2CC(C)S4)c1OC (stereo unspecified) -4.56%
C#CCn1c(COc2ccccc2C)nc2ccccc21 -7.38%
COc1cc2c(=O)c(S(=O)(=O)c3ccc(F)cc3)cn(Cc3ccccc3C)c2cc1OC 4.1%
Cc1ccc(-c2noc(-c3ccc(N4CCC(C)CC4)c([N+](=O)[O-])c3)n2)cc1 -18.6%
Cc1ccc(-n2cc(-c3ccccc3)c3c(NC4CCCC4)ncnc32)cc1 9%
COc1cc(OC)c(OC)cc1CNCCSc1nnnn1-c1ccccc1 0.307%
Cc1cccc(N(C)C(=O)CN2C(=O)COc3ccc(S(=O)(=O)N4CCCCCC4)cc32)c1 -2.8%
CCN(Cc1ccccc1)C(=O)C1CCN(c2ncnc3c2nc2n3CCCCC2)CC1 -0.086%
O=C(NCC(c1cccs1)S(=O)(=O)c1cccs1)c1ccccc1 (stereo unspecified) -3.71%
CC(NC(=O)Cn1ncc2c3ccccc3n(Cc3ccc(F)cc3)c2c1=O)c1ccccc1 (stereo unspecified) -0.133%
CCOC(=O)c1ccc(NC(=O)C2Cc3ccccc3CN2S(=O)(=O)c2ccc(Cl)cc2)cc1 (stereo unspecified) 0.77%
Cc1cc(Br)ccc1NC(=O)CCS(=O)(=O)c1cccc2nonc12 -16.1%
CCOC(=O)c1c(NC(=O)c2noc3c2CC(C(C)(C)C)CC3)sc2c1CCCC2 (stereo unspecified) -0.432%
Cc1ccc(C)c(N2CCN(C(=O)CN3C(=O)COc4ccc(S(=O)(=O)N5CCCCCC5)cc43)CC2)c1 -7.07%
CC(=O)c1sc2c(c1C)c(=O)n(-c1ccc(Cl)cc1)c(=O)n2Cc1ccc(Cl)cc1 -19.7%
Cc1cc(C)c(Cn2c(C)c(CNCCCc3ccccc3)c(C(=O)O)c2C)c(C)c1 -10.5%
CCOC(=O)c1cc2c(=O)n3ccccc3nc2n(CC2CCCO2)c1=NC(=O)c1cccc(C(F)(F)F)c1 (stereo unspecified) -20.5%
CC(=O)N1CCC(N(Cc2ccco2)C(=O)Nc2cccc(C)c2)CC1 -9.5%
COc1ccc(-c2cc(C(=O)Nc3c(C(=O)c4ccc(Cl)cc4)oc4ccccc34)no2)cc1 -4.4%
Cc1cccc(NC(=O)c2cnn(-c3ccccc3)c2-n2cccc2)c1C 0.811%
CCC1CN(C(=O)N2CCC(C(=O)NCc3ccc(C)o3)CC2)c2cc(C)ccc2O1 (stereo unspecified) -10.1%
Cc1nc2c(C(=O)NCc3ccccc3Cl)cnn2c(C)c1Cc1c(F)cccc1Cl -6.43%
CC(=O)N1CCCc2cc(S(=O)(=O)N3CCC(C(=O)NCCC(C)C)CC3)ccc21 -13.4%
O=C(NC1CC(=O)N(c2ccc(F)cc2)C1)c1cc2ccccc2o1 (stereo unspecified) 1.91%
CN1CCN(C(c2ccccc2)c2sc3nc(-c4ccco4)nn3c2O)CC1 (stereo unspecified) -0.584%
COc1ccccc1NC(=O)n1ncc2c(C)cccc21 2.87%
CCOC(=O)c1nnc2c(-c3ccc(OC)cc3)c(C)nn2c1N -3.7%
O=S(=O)(Nc1cccc(-c2ccc(N3CCCCC3)nn2)c1)c1cccs1 0.774%
CC1CCc2nc(NC(=O)COc3ccc(C(C)(C)C)cc3)sc2C1 (stereo unspecified) -23.5%
CC(=O)c1cccc(NC(=O)CCS(=O)(=O)c2cc(Br)cc3c2N(C(=O)C2CC2)CC3)c1 2.76%
CCCC(=O)N1CC(=O)Nc2ccc(Cl)cc2C1c1ccc(F)cc1 (stereo unspecified) -8.26%
Cc1csc2nc(COC(=O)COc3ccccc3F)cc(=O)n12 -0.118%
CCOc1ccc(S(=O)(=O)Nc2ccc3oc(C)c(C(=O)OCCOC)c3c2)cc1 -29.7%
O=C(Cc1ccc(NC(=O)N2CCSc3ncccc32)cc1)NCc1ccccc1Cl -5.79%
CCS(=O)(=O)c1ncc(N(Cc2ccco2)Cc2sccc2C)c(C(=O)Nc2cc(C)ccc2C)n1 -9%
Cn1c(C(=O)NCc2ccc(F)cc2)cc2c(=O)n(C)c3ccccc3c21 -11.3%
COc1ccc(CCNC(=O)Cn2nnc(-c3ccc(C(F)(F)F)cc3)n2)cc1OC 0.15%
CCCn1c(=O)c2sccc2n2c(CCCC(=O)N3CCN(c4ccccc4)CC3)nnc12 1.69%
COCCn1c(SCC(=O)Nc2ccc(F)c(Cl)c2)nc2c(oc3ccccc32)c1=O -1.58%
COc1ccc(C(=O)NCCc2sc(-c3cccc(F)c3)nc2C)cc1 -2.65%
Cc1nc2ccn(Cc3cccnc3)c(=O)c2cc1C(=O)Nc1ccc(OC(F)(F)F)cc1 -22.1%
Cc1ccccc1NS(=O)(=O)c1ccc2[nH]cc(C(=O)N3CCCC3)c(=O)c2c1 -0.655%
CCOC(=O)C1=C(CN2CCN(c3ccccc3)CC2)NC(=O)NC1c1ccc(C)cc1 (stereo unspecified) -2.86%
COc1cccc(C(=O)NC(=O)Nc2ccc(-c3cc(C(F)(F)F)nn3-c3ccccc3)cc2)c1 -12.9%
Cc1sc2ncn(CC(=O)Nc3cccc(C(F)(F)F)c3)c(=O)c2c1S(=O)(=O)N1CCC(C)CC1 5.63%
O=C(Nc1ccccc1C(=O)OCc1cc(=O)n2nc(C3CC3)sc2n1)c1cccc(Cl)c1 1.76%
Cc1ccc(Cl)cc1NC(=O)Cn1c(=O)c(CNc2ccccc2)cc2cc3c(cc21)OCCO3 -2.03%
CCCCn1c(-c2ccc(S(=O)(=O)N3CCOCC3)cc2)csc1=Nc1ccccc1 -2.61%
Cc1cccc(Cn2c(CN3CCC(C(=O)NCCc4ccccc4)CC3)cc3ccccc32)c1 -9.47%
COc1ccc(-c2c(C)nn3c4c(cnc23)C(=O)CC(c2ccc(C)cc2)C4)cc1 (stereo unspecified) -1.82%
CCN(c1cccc(C)c1)S(=O)(=O)c1nnc(NC(=O)c2cccs2)s1 14%
Cc1c(C(=O)Nc2ccccc2Br)oc2ccc(S(=O)(=O)N3CCCCC3)cc12 9.97%
CCC(=O)Nc1nnc(S(=O)(=O)N(C)Cc2ccccc2)s1 1.58%
COc1cccc(NC(=O)Cn2c(=O)n(-c3ccc(CC(=O)NCC4CCCO4)cc3)c(=O)c3ccccc32)c1 (stereo unspecified) -7.47%
CCOc1ccccc1NC(=O)c1cccc2c1C(=O)N(C1CCCCC1)C2 -8.69%
Cc1cc(C)cc(NC(=O)NCCn2nnc3cc(S(=O)(=O)N(C)C)ccc32)c1 0%
CSc1ncc(Cl)c(C(=O)N(Cc2ccccc2Cl)C2CCS(=O)(=O)C2)n1 (stereo unspecified) 1.04%
CCOc1ccc(C(=O)OCc2cc(=O)n3nc(C4CCCCC4)sc3n2)cc1 -6.71%
CCCN1C(=O)C(NC(=O)c2ccccc2OC)(C(F)(F)F)C(C(=O)OC)=C1C (stereo unspecified) 0.413%
CCOc1ccc(NC(=O)Cc2csc(COc3cccc(C)c3)n2)cc1 0.381%
CCOc1ccccc1C1C(C(=O)Nc2ccccc2OC)=C(C)Nc2nc3ccccc3n21 (stereo unspecified) 2.47%
Cc1ccc2nc(NC(=O)c3cc(=O)c4cc(C)c(C)cc4o3)sc2c1 3.57%
CSc1ccc(CNC(=O)CCn2ccc3cc(S(=O)(=O)N4CCCC4)ccc32)cc1 -6.5%
CCOc1ccc(NC(=O)Cn2c(C)ccc(C#N)c2=O)cc1 0.381%
CCc1nnc2c3ccccc3nc(N3CCN(c4ccc(C)cc4C)CC3)n12 1.62%
COc1ccccc1CNC(=O)c1ccc(C)c(-n2cnc3cccnc32)c1 -14.8%
Cc1cc(Br)ccc1NC(=O)c1cc2c(s1)-c1ccccc1SC2 -1.31%
O=C(CCCn1c(=O)c2cccn2c2cccnc21)NCCc1ccc(Cl)cc1 0.781%
CCOC(=O)c1ccccc1NC(=O)CN(c1ccccc1OC)S(=O)(=O)c1ccc(C)cc1 -0.178%
COc1ccc(CN2C(=O)C(NC(=O)c3ccc(C)cc3)(C(F)(F)F)N=C2c2ccccc2)cc1 (stereo unspecified) 3.97%
COc1ccccc1NC(=O)CSc1nc2c(oc3ccccc32)c(=O)n1-c1ccc(C)cc1 -4.91%
CCOC(=O)N1CCc2c(sc3c2c(=O)n(-c2ccc(Cl)cc2)c(=O)n3CC(=O)c2ccc(F)cc2)C1 0.0741%
COc1ccc(NS(=O)(=O)c2nnc(NC(=O)c3ccccc3F)s2)cc1 6.01%
COc1ccc(-n2ccnc(NCCc3ccc(S(N)(=O)=O)cc3)c2=O)cc1 5.85%
COc1cc(/C=C/c2nc(C#N)c(NC3CCCCC3)o2)cc(OC)c1OC 1.57%
Cc1ccc(CNc2nc3c(S(=O)(=O)c4ccccc4)nnn3c3ccsc23)cc1 0.694%
CCNC(=O)CCSc1nnc(-c2ccc(O)cc2)o1 -1.21%
CCC(Oc1ccc(F)cc1)C(=O)Nc1cc(-c2ccc(C)cc2)no1 (stereo unspecified) -1.34%
COc1cccc(CNC(=O)Nc2cc(C(=O)NCc3cccc(F)c3)ccc2N2CCCC2)c1 0%
